{"source": "PubChem BioAssay (NCATS)", "note": "This list was built around the results that the source calls inconclusive (neither active nor inactive); the mix of calls is not that of the screen. No potency is given beside an inconclusive call; the fits are too rough. The source made the active and inactive calls. The call rests on the fitted dose curve; in most records, active means well fitted curve in either direction with a large enough effect (not every such curve was filed as active); inconclusive means small, poorly fitted or top-dose-only effect, or another doubt; inactive means flat fitted curve, though single readings scatter. Potency means the concentration at half of the fitted maximal effect; tags describe the fitted curve by direction and shape.", "data": [{"biological_target": "Mitogen-activated protein kinase 10 (Mus musculus) (UniProt Q61831)", "assay": "JNK3 AlphaScreen Assay (AID 530);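 further: kinase came from lysate of stimulated human HepG2 cells; signal reports phosphorylation of biotinylated GST-cJun 1-79 at Ser73 with 10 µM ATP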", "details": "JNK3 lysate, c-Jun phosphorylation; series mostly up to 57.1 µM", "in_short": "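qHTS format: compounds tested as titrations against IL-1beta/TNF-alpha-activated HepG2 lysate JNK3 with biotin-GST-cJun substrate and 10 uM ATP at room temperature. Loss of anti-phospho-cJun AlphaScreen signal indicates inhibition.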", "values": [{"smiles": "O=c1cc(-c2ccccc2O)oc2ccc3ccccc3c12", "Potency": "inconclusive [activator, full curve, poor fit]"}, {"smiles": "Cc1c(-c2ccccc2)oc2cc(O)ccc2c1=O", "Potency": "inconclusive [inhibitor, partial curve, poor fit]"}, {"smiles": "Cc1ccc(S(N)(=O)=O)cc1", "Potency": "inconclusive [activator, full curve, poor fit]"}, {"smiles": "CCCCCCN(CCCCCC)C(=O)Cc1c(-c2ccc(Cl)cc2)[nH]c2ccc(Cl)cc12", "Potency": "inactive"}, {"smiles": "CC(=O)CC(=O)Nc1ccccc1", "Potency": "inactive"}, {"smiles": "CCC/C=C(\\CCC)C(NS(=O)(=O)c1ccc(C(F)(F)F)cc1)c1ccc(C(=O)OC)cc1", "note": "(stereo not drawn)", "Potency": "inconclusive [activator, single point]"}, {"smiles": "O=[N+]([O-])c1cccc(I)c1", "Potency": "inconclusive [activator, full curve, poor fit]"}, {"smiles": "O=c1c(O)c(-c2cccc(O)c2)oc2ccccc12", "Potency": "inconclusive [inhibitor, single point]"}]}]}
